The values that follow come from the RNAGym collection of RNA variant scans (doi:10.7554/elife.90254).

To fix the notation:
B1: OR4K15 (parent)
chain: GUUAACGGUCAUAGGCCAUGGAAACUAGGAGCACCAUUUCGCUGCCAGUGAAGAAAUGAACAAAGAAAAUCUGGGCCAGGCAGGCAUCAAAAGAAAUAGUCUUGCGCUCAACCAGAAAGUCUGUAAUCAUUUUAAGGGUA

The source gives no read counts; variants with many changes may rest on few reads.

Variants of B1 are the subject of the data set. The data set can be described thus: self-cleavage, relative activity (ratio to wild type); higher = more cleavage; in vitro, sequencing; the parent is a self-cleaving ribozyme.
A78U A111G A118G: the self-cleavage is 0. The same measure for U72A U87A U97C: 0.16; for U72C A94G A96G A126G: 0.04. On to A78U U97C U120C, for which the self-cleavage turned out to be 0.15.

With A82G U100C A118G, the self-cleavage was 1.15. The same measure for A82G A91G U102A: 0.37; for U72C U97A A140G: 0.32; for U72C A110G U130C: 0.02.

With A78G U87A A129G, the self-cleavage was 0.17.

With A78G A116G A129G, the self-cleavage amounted to 0.07.

Consider A82G U100C G104A, for which the self-cleavage was found to be 0.03. In the case of C77A U102C U122C it was 1.55; in that of A82U A95G A126G, 0.14. The same measure for A78G U122A A135G: 0.17.

U72C A78G A140G: the self-cleavage stood at 0. In the case of G74A A94G A117G it was 0.16; in that of U72C G75C U97C U130C A135G, 0.

G80A A118G A125G: the self-cleavage was 0.02. The same measure for U72C U102C A118G U127C: 0.08; for A82U A96G U130C: 0.11; for A78U U100C U103C U108C: 0.01. For G74U A86U U122A, the self-cleavage turned out to be 0.15.

For A78U U130C A140U, the self-cleavage was determined as 0.15. G74A A91G U124G: the self-cleavage is 0.06. The same measure for C81A A82G A91U U131A: 0.14; for G79A A117G C128U: 0.13; for G83A G106A U130C: 0.01.

Consider U72C G99U A116G A118G A129G, for which the self-cleavage is 0. In the case of A78U A116G G138A it was 0.22. The same measure for C77A A96U A118U: 0.54; for A78G A94G U122C: 0.06.

Turning to U72C A96G A111G, the self-cleavage was determined as 0.03.

For A82U U87C A129G A135G, the self-cleavage is 0.06. In the case of A78U U87C A96G C101A it was 0.03; in that of U72G A82G U100C U103G, 0.01. The same measure for A82U A94U U122C: 0.16; for U72C U100C U108C: 0.02; for A82U A118G U122C: 0.07. The same measure for G73A U97C C105G A129U: 0.01; for A82C A98G A111G: 0.03.

As to G80A U102A U103C A117G, the self-cleavage was found to be 0.04. As to A82G A91G A98G, the self-cleavage came out at 0.07. In the case of C81U A82U A114C A117C it was 0.02. For the variant A78U A94G U120C, the self-cleavage is 0.24.

With A82G G84U A86G A110G A116G, the self-cleavage amounted to 0.01. The same measure for A82G A118G A126G: 0.3.

As to A78G U87A A94G U108C U139A, the self-cleavage was 0.01. The same measure for U72A A110G A116G U122C: 0.02; for U72A A111G U127A: 0.06. The same measure for C76A A78U U103C A114U: 0; for G74U A96G U97C: 0.02. In the case of U72A U87C A126G it was 0.19. For A82G A114G U132C, the self-cleavage was determined as 0.04.

Regarding U72C A89G U131C, the self-cleavage was found to be 0.07. In the case of A78G A94G U102A A140G it was 0.03. The same measure for G75C A89U U102C U103A: 0.05; for A82G A91U A95G U120C: 0.98; for A78C A82U A91G A111G: 0.02. In the case of A78G A91C A117U it was 0.07; in that of U72C A96G G115A A125G, 0. As to C81U U97C U139C, the self-cleavage was determined as 0.31. The same measure for U72G A90G A117G U132C: 0.14; for A82U A114G C121U U122C: 0.01. With A78G A125U U130C, the self-cleavage worked out at 0.26.

Consider A82G A114C A126C, for which the self-cleavage was determined as 0. In the case of A78G U122C A126G it was 0.06. The same measure for C81A A90G C112U: 0.02. In the case of A78G A86G A114G A116G it was 0.03; in that of A78U A82G A117G A118G U130C, 0.07.

Regarding A82U A95G U132C, the self-cleavage stood at 0.49. On to A78U A90U U130C, for which the self-cleavage amounted to 0.09.

Regarding A82G G106A A135U, the self-cleavage came to 0.01. The same measure for C76U C81U A96G A111G: 0.01; for G75A A116U U124C: 0.02.

On to A78G A96G U133C, for which the self-cleavage was determined as 0.21. The same measure for G75C A92U A118U U139C: 0.05; for U72A U97G A111G: 0.01.

Turning to A78U U122C U139C, the self-cleavage is 0.06. On to U72C A89G A91G, for which the self-cleavage amounted to 0.12. In the case of U72A U100G U103C it was 0.07; in that of C76U A92G U133C, 0.11; in that of A78G U108C A126G, 0.01. In the case of A82U A126G A140G it was 0.16; in that of A82U A91G A116G, 0.09. Turning to A78U A95C A110G, the self-cleavage came out at 0.01.

Consider A78U A118U U122C, for which the self-cleavage amounted to 0.11. For the variant A82G A111G U122A, the self-cleavage was determined as 0.01.

Consider A82G A92G A116G, for which the self-cleavage was 0.21. C81A U87C A92U: the self-cleavage amounted to 0.24.

In the case of U72C A82G A95G, the self-cleavage is 0.12. The same measure for G74A A118G U133A: 0.14. The same measure for A82U A94G A126U: 0.16; for U72C G79A A111U A126G: 0.01.

In the case of A78G U100C U122G, the self-cleavage stood at 0.72.

For the variant A82G A117G U122C A135U, the self-cleavage turned out to be 0.19. As to U72C A82U A95G, the self-cleavage stood at 0.51. In the case of A82G A91G U130C it was 0.08; in that of U72A U87C U124A, 0.15.

A78G A86U A91G A117G U131C: the self-cleavage is 0.13.

As for A82G A94G U103C U127C, the self-cleavage turned out to be 1.28. Take U72A U87C U103C: the self-cleavage was found to be 0.11. In the case of A78G A95G G104A it was 0; in that of A78G A111G U127C, 0; in that of A82G U100C C107A U132C, 0.01.

In the case of A78G A91G A96G, the self-cleavage was 0.2. In the case of G84A A96G G119U it was 2.33; in that of A82U U103C U120A, 0.05; in that of G75A A91G U122C, 0.13.

Take U72G A78G A89U A117G: the self-cleavage came to 0.23. As to A78U A90G U108C A111G U132C U139A, the self-cleavage came out at 0. The same measure for C76G A78C A117G A125G: 0; for A78U U100C A117G: 1.26; for A82G A96U A134G: 0.15.

Take A78U A94G U102G U132C: the self-cleavage was 0.05. In the case of G83A A91G U103C, the self-cleavage came out at 0.15. The same measure for C77A A82G U130C: 0.11; for U72C A82G A92U U120A: 0.06. For the variant A78G U102C A118U, the self-cleavage turned out to be 0.16.

As for A78G A89U A98U, the self-cleavage stood at 0.25. In the case of A78U G83U A125G U130C, the self-cleavage was determined as 0.01.

As for A82U A95G U124A, the self-cleavage amounted to 0.29. In the case of A78U U102C U108C it was 0.01; in that of U72C A89U A118G U139A, 0.03; in that of U72C C81U U100C U124C, 0.26. In the case of A78G A118G U122C it was 0.19.

On to A78C U97C A117U, for which the self-cleavage came to 0.07. The same measure for U72C A96G A98G: 0.03; for A82C A98C U108A: 0.01. In the case of A78G A90G A92C U132C it was 0.04; in that of A78C A92G G106A U130C, 0.01; in that of G80A U102C A140G, 1.07. The same measure for U72C A89C A91U U124C: 0.06; for A78G A92G U130C: 0.13; for U72A G83A U132A: 0.29.

For the variant G83A A116G A126G, the self-cleavage stood at 0.93. The same measure for U72C A86G A117U A125G: 0.07; for A82G A90U A116G A134G: 0.28. For A82G U97A U108C A118G, the self-cleavage came out at 0.02. The same measure for G83U U102G A125G A135G: 0.32; for G75A U102A A111G A117G: 0; for U72C U122G U132C: 0.24. The same measure for G75A A116U A129G: 0.01; for G74A A94G A118U U130C: 0.05. The same measure for C77U A92U U108C G119A: 0; for C81U U97C A111G: 0. Consider G74A A95G U103A, for which the self-cleavage was 0.12. Turning to U72C U102A A118G, the self-cleavage was determined as 0.03. For U72G U120C A140U, the self-cleavage is 0.07. In the case of U72C C109A U132C it was 0.01; in that of G79C A95U U102C A114G A116G, 0.02. In the case of A82U A98G G106A it was 0.01; in that of A82U A90G A95G, 0.29; in that of A82U A94G U108C U131A, 0.03. In the case of G84A A92G U122C U131G it was 0.64; in that of A78G A117G U122A, 0.08; in that of G73A A118G A129C, 0.02. In the case of C77U A94G U102A, the self-cleavage was 1.72. The same measure for A78U A82G G106A U122C: 0.01; for A78G A94G U108A A117G: 0; for A82G G123A U127C: 0.24. In the case of A82G A96G A118G A134G it was 0.15; in that of A82U A86G A91U, 0.2; in that of C76U A90G A92G, 0.17. U72C A78G A111G U130C: the self-cleavage came out at 0. In the case of G83A U87C U102A it was 0.18. The same measure for A78G U127C G136U: 0.25; for U72C U102C A118G A126U: 0.19.
